Of roughly 21,000 targets only a part is listed; those with the largest changes were picked by preference.

The text below walks through data of the supplement of paper PMC12067093, “Discovery and optimisation of a covalent ligand for TRIM25 and its application to targeted protein ubiquitination” (Chemical Science, 2025).
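Further: competitive chemoproteomic profiling in live THP-1 cells with an iodoacetamide desthiobiotin (IA-DTB) probe, comparing probe-labelled peptide intensities in compound-treated cells against DMSO-treated controls.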

Chain of UniProt P05107 (P05107 whole entry, looked up): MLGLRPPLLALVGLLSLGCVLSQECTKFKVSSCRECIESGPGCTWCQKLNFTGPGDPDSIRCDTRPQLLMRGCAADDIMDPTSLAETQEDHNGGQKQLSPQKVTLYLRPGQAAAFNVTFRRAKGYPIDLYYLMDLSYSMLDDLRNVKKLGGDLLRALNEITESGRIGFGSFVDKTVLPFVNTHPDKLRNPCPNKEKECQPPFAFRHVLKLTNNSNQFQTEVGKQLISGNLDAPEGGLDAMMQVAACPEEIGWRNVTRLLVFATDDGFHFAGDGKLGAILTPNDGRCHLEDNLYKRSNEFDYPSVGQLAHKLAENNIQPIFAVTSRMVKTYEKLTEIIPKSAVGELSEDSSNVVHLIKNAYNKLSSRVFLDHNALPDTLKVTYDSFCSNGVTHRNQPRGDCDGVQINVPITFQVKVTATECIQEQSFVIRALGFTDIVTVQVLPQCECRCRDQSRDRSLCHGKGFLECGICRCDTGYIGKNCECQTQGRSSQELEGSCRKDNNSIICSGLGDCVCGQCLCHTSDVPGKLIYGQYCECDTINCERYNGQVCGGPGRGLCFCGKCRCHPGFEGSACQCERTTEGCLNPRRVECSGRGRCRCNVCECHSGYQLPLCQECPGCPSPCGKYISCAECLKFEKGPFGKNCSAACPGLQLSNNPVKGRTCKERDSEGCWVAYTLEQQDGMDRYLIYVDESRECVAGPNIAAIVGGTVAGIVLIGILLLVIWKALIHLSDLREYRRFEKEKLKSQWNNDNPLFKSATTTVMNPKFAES
Chain of UniProt Q9Y333 (Q9Y333 whole entry, looked up): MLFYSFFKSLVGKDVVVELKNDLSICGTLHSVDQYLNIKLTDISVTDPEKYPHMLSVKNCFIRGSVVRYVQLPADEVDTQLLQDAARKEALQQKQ
Chain of UniProt Q2KHM9 (Q2KHM9 whole entry): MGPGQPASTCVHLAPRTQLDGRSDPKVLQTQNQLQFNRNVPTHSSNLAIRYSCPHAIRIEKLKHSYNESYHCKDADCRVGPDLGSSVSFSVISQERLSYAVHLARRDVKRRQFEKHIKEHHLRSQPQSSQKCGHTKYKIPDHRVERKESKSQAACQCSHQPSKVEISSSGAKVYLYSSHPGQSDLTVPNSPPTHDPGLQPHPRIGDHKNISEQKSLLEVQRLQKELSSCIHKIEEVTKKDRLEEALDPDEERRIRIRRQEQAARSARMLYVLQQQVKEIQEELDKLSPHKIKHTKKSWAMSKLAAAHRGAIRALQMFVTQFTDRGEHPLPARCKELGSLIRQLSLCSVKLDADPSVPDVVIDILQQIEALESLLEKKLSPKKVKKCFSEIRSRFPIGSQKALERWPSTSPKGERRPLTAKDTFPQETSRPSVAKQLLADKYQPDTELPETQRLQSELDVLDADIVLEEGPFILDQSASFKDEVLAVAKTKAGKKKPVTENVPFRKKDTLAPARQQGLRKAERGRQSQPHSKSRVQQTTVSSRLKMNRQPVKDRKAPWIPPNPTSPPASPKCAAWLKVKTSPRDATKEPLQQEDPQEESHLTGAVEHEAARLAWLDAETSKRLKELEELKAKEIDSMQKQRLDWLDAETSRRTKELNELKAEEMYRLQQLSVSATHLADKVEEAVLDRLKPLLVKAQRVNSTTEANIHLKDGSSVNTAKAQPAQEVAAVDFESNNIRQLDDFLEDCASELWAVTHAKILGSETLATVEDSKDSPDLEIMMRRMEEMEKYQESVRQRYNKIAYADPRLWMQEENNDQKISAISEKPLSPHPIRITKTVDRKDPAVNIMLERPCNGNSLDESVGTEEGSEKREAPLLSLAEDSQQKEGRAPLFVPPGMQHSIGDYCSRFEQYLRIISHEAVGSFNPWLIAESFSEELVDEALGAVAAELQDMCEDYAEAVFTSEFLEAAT
Chain of UniProt Q9UHB6 (Q9UHB6 whole entry, looked up): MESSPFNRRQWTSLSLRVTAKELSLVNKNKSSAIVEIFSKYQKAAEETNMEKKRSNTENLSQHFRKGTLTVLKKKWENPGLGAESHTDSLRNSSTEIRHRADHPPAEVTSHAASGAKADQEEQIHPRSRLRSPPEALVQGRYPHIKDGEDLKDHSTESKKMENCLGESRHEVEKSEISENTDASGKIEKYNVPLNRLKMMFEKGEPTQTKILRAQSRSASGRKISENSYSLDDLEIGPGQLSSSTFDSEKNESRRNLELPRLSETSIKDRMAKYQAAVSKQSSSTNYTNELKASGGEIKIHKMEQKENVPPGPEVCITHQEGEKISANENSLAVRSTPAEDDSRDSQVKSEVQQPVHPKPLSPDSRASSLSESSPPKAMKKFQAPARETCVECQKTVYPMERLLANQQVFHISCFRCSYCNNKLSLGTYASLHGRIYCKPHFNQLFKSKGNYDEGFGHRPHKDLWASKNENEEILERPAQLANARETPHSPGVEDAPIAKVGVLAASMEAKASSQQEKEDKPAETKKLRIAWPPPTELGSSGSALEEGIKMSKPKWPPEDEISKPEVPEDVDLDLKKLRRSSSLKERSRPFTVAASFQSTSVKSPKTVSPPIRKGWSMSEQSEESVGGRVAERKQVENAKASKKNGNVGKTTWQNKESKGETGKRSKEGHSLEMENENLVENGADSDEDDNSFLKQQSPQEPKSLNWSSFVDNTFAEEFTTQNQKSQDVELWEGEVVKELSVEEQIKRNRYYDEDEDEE
Chain of UniProt Q3MHD2 (Q3MHD2 whole entry, looked up): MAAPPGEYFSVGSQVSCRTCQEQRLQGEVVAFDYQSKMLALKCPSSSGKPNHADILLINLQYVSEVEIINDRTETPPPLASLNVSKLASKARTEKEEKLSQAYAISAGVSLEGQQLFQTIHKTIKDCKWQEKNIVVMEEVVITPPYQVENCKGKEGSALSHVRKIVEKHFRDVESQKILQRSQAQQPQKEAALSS
Chain of UniProt Q9NXV2 (Q9NXV2 whole entry, looked up): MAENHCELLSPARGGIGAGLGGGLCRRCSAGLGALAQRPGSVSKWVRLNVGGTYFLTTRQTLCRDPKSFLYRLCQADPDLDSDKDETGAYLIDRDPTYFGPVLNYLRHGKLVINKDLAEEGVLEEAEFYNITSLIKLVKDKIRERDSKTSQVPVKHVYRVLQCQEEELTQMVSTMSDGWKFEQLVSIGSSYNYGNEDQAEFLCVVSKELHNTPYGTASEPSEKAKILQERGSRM
Chain of UniProt P23458 (P23458 whole entry, looked up): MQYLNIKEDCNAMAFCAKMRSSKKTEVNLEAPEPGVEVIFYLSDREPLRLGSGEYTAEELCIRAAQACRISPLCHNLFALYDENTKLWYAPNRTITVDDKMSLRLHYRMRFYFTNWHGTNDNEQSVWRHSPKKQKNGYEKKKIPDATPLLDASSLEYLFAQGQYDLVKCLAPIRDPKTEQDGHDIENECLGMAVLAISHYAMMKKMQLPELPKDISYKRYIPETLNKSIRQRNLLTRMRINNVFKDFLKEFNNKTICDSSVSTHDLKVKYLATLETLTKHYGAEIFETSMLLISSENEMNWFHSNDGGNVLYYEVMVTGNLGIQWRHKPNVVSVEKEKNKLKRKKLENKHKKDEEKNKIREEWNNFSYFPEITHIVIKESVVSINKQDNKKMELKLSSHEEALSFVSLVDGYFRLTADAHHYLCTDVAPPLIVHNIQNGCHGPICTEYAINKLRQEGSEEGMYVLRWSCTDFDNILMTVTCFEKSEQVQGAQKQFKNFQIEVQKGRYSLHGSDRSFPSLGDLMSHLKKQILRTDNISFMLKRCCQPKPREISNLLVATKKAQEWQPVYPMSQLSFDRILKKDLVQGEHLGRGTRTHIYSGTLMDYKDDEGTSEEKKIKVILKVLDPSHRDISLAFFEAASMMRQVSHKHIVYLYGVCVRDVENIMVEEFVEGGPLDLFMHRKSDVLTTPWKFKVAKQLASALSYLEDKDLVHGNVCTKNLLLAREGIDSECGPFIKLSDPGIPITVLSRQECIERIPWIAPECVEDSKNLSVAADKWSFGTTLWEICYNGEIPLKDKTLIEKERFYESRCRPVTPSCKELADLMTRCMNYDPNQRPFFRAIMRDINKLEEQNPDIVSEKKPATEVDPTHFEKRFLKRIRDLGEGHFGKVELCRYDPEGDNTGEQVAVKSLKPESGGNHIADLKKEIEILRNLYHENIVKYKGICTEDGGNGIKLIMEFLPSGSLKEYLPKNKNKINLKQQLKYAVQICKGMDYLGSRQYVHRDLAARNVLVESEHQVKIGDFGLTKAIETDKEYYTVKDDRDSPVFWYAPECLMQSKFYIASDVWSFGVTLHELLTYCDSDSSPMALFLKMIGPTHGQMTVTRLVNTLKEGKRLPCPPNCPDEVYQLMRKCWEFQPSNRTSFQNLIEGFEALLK
Chain of UniProt Q14847 (Q14847 whole entry, looked up): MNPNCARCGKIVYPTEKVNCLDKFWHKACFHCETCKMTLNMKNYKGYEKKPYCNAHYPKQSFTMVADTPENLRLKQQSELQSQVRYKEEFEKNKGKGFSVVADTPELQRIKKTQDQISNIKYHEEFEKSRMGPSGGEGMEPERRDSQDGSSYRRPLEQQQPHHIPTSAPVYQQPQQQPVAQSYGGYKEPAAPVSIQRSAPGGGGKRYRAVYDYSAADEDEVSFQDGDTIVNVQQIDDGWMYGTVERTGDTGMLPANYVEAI

Compound in the experiment: CC1Cc2ccccc2N1C(=O)C1CCCN(C1)C(=O)CCl (mixture of isomers) [TRIM25 ligand 11 (diastereomer mixture)]
Put plainly: probe-labelled cysteine peptide fold change vs DMSO (competition) (log2 fold change); higher = less target engagement (more negative = stronger competition). The note with it: 50 µM; THP-1; incubation time: 4 h.
On to “KCTD5_Q9NXV2_25_GGIGAGLGGGLCR (UniProt Q9NXV2)”, for which the “probe-labelled cysteine peptide fold change” value is -0.0264. For the target “LIMA1_Q9UHB6_414_LLANQQVFHISCFR (UniProt Q9UHB6)”, the “probe-labelled cysteine peptide fold change” value was -0.206. Take “LSM12_Q3MHD2_43_CPSSSGKPNHADILLINLQYVSEVEIINDRTETPPPLASLNVSK (UniProt Q3MHD2)”: the “probe-labelled cysteine peptide fold change” value was -0.151. For “LONP1_P36776_520_ILCFYGPPGVGK (UniProt P36776)”, the “probe-labelled cysteine peptide fold change” value was -0.0802. For “ITGB2_P05107_590_VECSGR (UniProt P05107)”, the “probe-labelled cysteine peptide fold change” value worked out at 0.593. To “JAK1_P23458_716_DLVHGNVCTK (UniProt P23458)” belongs 0.053; to “LSM2_Q9Y333_26_NDLSICGTLHSVDQYLNIK (UniProt Q9Y333)”, 0.189; to “KPNA6_O60684_427_YLVSLGCIKPLCDLLTVMDSK (UniProt O60684)”, -0.279. As for “LCP1_P13796_336_EKDDIQRAECMLQQAER (UniProt P13796)”, the “probe-labelled cysteine peptide fold change” value is -0.237. To “LASP1_Q14847_29+32_ACFHCETCK (UniProt Q14847)” belongs -0.0823; to “INPPL1_O15357_689_TNVPSWCDR (UniProt O15357)”, 0.159; to “LENG9_Q96B70_127_EEPFSAFCWDQPLAALGPGVLAVPQHR (UniProt Q96B70)”, 0.0104. The same measure for “LDHA_P00338_163_VIGSGCNLDSAR (UniProt P00338)”: 0.12.

With “KIAA0753_Q2KHM9_745_QLDDFLEDCASELWAVTHAK (UniProt Q2KHM9)”, the “probe-labelled cysteine peptide fold change” value was -0.0783.
